The list shows a part of the results.
Test system: PfAP2-HC AP2 domain (GST-tagged)
Assay: gcPBM binding intensity (ln(normalized median fluorescence intensity)); higher = stronger DNA binding
Summary of the method: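 Binding intensity is the highest Masliner-normalised natural-log median intensity over replicate spots in either probe orientation. To obtain it, GST-tagged P. falciparum DNA-binding domains made in E. coli were incubated for 1 h on an Agilent 4 × 180k array of primer-extended double-stranded 36-bp intergenic genomic probes plus negative controls. Detection used Alexa488 anti-GST antibody with scanning at 488 nm.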

Row | Sequence | gcPBM binding intensity (ln)
1 | TATGCTACATTATATGTACACACATATACATATATA [CACACA_site8199] | 9.93
2 | ATTTATACGTAATATGCATAAATATAAATATATATA [XGTACX_negctrl_site133] | 9.69
3 | TTAAAATTTTAAAAATTTTAATTTTACAAAAAAAAT [TGCATGCA_negctrl_site227] | 9.29
4 | TTTCTTTCTTTCTTTTTTTAAATATTTTTTAAAAAT [TGCATGCA_negctrl_site206] | 9.38
5 | ATATAAATAAAAAAAAAAAAAAAAAAAAAAAAAAAA [CACACA_negctrl_site972] | 9.01
6 | ATCATCTTTATTCAAGTGCACTGAAAATTTTTTATA [GTGCAC_site9801] | 9.68
7 | ATAATTATATGGCTAGCACACAATAAATAATTATAT [CACACA_site3815] | 9.75
8 | ATATAAGTGTATCTAACACACAAATATATAAAAATG [CACACA_site1956] | 9.88
9 | ACAAGTTAAAATATTACACACATATAAATATTTATA [CACACA_site7467] | 9.74
10 | AAGAAAAATATTCGTGTGCACAGAAGTATATGTGTG [GTGCAC_site9814] | 10.3
11 | TATTGTAAGAAAGGCACACAGATAAAATTATTATAT [CACACA_site2921] | 9.87
12 | TTTCGCTTTATTTATGCATGCAAATAAGTTGATATT [TGCATGCA_site724] | 9.68
13 | ATTTTTGTAAATACATGTACATATATATGCATATCC [XGTACX_site6353] | 10.1
14 | TACATATATACATACACACACATATAACCAATGTAG [CACACA_site2192] | 10.4
15 | AGTAATAGTTTGTGCACACTCAAGTATATCATAGAT [CACACA_site6082] | 10.2
16 | TGATATTATTATAAGGTGCTTAAAAATAAAGATAAT [GTGCAC_site9539] | 9.58
17 | AAAAAAAAAGATCACACACACATAAATATAAACAAA [CACACA_site5285] | 10.9
18 | AAAAAAAAAAAAAAAAAAAAAAAAAAAAGTTAAAAA [TGCATGCA_negctrl_site74] | 9.09
19 | AAAATTAAAATAGTAATACACACTTCATAGGAAATG [CACACA_site1762] | 9.73
20 | AACAAGAAATAATCACGTACACATTATAATAACTAA [XGTACX_site8184] | 9.76
21 | ATATAAAATAATAAGGGTACAGGTCTCTGCGATGTT [XGTACX_site786] | 9.77
22 | TAAAATATTGTTATTACATGCAACCTTATGAAAAAT [TGCATGCA_site706] | 9.53

Row | Sequence | gcPBM binding intensity (ln)
23 | AGAATTTTAGATTTAGCACACATTTTTTTTTTTTTT [CACACA_site4081] | 9.62
24 | ACTCGCATATTTAAATGTACTTAATTAGAAGAAAAA [XGTACX_site3304] | 9.44
25 | ACTTTAATAATTCACTTATTTTCTTATTATATTATT [CACACA_negctrl_site556] | 9.89
26 | GGATTTATTTTATATACACACATACCTATATTTATA [CACACA_site7084] | 9.9
27 | TTTTTAACTAACATATCAATTCCATACGTCGTCAAA [CACACA_negctrl_site560] | 9.51
28 | AACTTGTGTGGATATTGTACTAACAATATGTATGAT [XGTACX_site6302] | 9.94
29 | AATAGTGTATAAATTTGTACATATAATTAAAAGGAA [XGTACX_site1143] | 9.82
30 | AATAACTTTTTGAGATGTACATTTTTAATTCGTAGA [XGTACX_site8455] | 9.43
31 | ATTCATAAAAAGAGGTGTACATTAATATAATATATA [XGTACX_site8283] | 9.68
32 | TTATTCGAACAAAGGAAAAAATATATTCAAAGGAAA [TGCATGCA_negctrl_site215] | 9.48
33 | AGGATATGCAGACACACACACATATAGATTTATATA [CACACA_site7100] | 10.3
34 | TCTATATAATACCAATGTACATAGTTTTAAGCATAA [XGTACX_site1889] | 9.48
35 | AAAACAAAAATATAAACACACATACATTGGTTTTCT [CACACA_site5405] | 9.87
36 | ATAAATTGTAAAATGTGTACGCAGATATTGCGTATT [XGTACX_site332] | 9.75
37 | ATAATATAAACATACACACACACATATATATATATA [CACACA_site5591] | 10.8
38 | TTTTGTCTTCAAATCAAATGTATATAAAAAAAATAC [CACACA_negctrl_site1717] | 9.34
39 | TTTAAAAATTTGATCAAACACACGTTGCATAAATTA [CACACA_site3945] | 9.62
40 | TTTTTTACTTTTGAGACATTTCATATTTTTATTCAC [GTGCAC_negctrl_site730] | 9.71
41 | TGATTGAGTAAAATGGGTACATATACACTATTACAT [XGTACX_site5232] | 9.66
42 | TACAGGAATATTTTTACACACTAAAAATTATAAAAT [CACACA_site1649] | 9.66
43 | ATATTGTATTTATGTACACACATTTTTGGAATATGA [CACACA_site4861] | 9.87
44 | TTTTTTCTCTGTGGCTGTACTTTGAAGATATTTTAT [XGTACX_site8243] | 10.2
